The values below come from ChEMBL document CHEMBL4888484, “Replenishing the malaria drug discovery pipeline: Screening and hit evaluation of the MMV Hit Generation Library 1 (HGL1) against asexual blood stage Plasmodium falciparum ,using a nano luciferase reporter read-out” (2022).

The term % Inhibition denotes the drop in the measured response relative to a control, in per cent.

Each structure is given as a SMILES string. In all, about 150,000 compounds went through this assay and about 540 (0.36%) showed an effect of 50% or more. Some of the results follow.

The assay relates to Plasmodium falciparum. As to the kind of experiment: Primary screen in NF54 nanoGlo assay, in single point, at 2uM, 72h; a lower Z score goes with more inhibition. The conditions noted are these: timepoint 72 hour. The assay is classed as functional, Erythrocyte.
For the molecule `Cc1cc(CN2CCN(C(=O)c3ccc(=O)n(C)c3)CC2)on1`, the “% Inhibition” value is -9% and the Z score stood at 1.01.

Take `C[C@H](O)c1cn(C2CN(C(=O)C3(c4cccc(F)c4)CCC3)C2)nn1`: the “% Inhibition” value is -3% and the Z score came to 0.25.

Consider `CC(C)N(Cc1cnn(C)c1)C(=O)NCc1cccc(F)c1`, for which the “% Inhibition” value amounted to 2% and the Z score is recorded as -0.3.

As to `O=C(Cn1cnnn1)NCCc1nc(C(F)(F)F)cs1`, the “% Inhibition” value is listed as -8% and the Z score is 1.04.

`CN(CCc1ccncc1)Cc1ccc(F)cc1C#N`: the “% Inhibition” value is given as -9% and the Z score came out at 0.93.

On to `Cc1cc(CN(C)Cc2ccc(C)o2)c(C)c(CN2CCN(C)CC2)c1`, for which the “% Inhibition” value is listed as -2% and the Z score is reported as 0.47.

Turning to `Cc1ccc2sc(C(=O)N3CCCS3(=O)=O)cc2c1`, the “% Inhibition” value was -4% and the Z score amounted to 0.56.

With `COc1cccc(N2Cc3nn(CC(=O)N4CCCC4)c(=O)n3C2=O)c1`, the “% Inhibition” value is on record as -6% and the Z score was found to be 0.88.

`CN1CCN(c2ccc(S(=O)(=O)N3CCOCC3)cc2N)CC1`: the “% Inhibition” value is recorded as -4% and the Z score came to 0.85.

Turning to `CCc1nc(CCNCc2ncc[nH]2)sc1C`, the “% Inhibition” value is listed as -3% and the Z score was 0.3.

For `CC1CCN(C(=O)CCCCC(=O)N2CCC(C)CC2)CC1`, the “% Inhibition” value is -6% and the Z score is 0.86.

Consider `N[C@@H](C(=O)NCC1(Cn2ccnc2)CC1)c1ccccc1`, for which the “% Inhibition” value is recorded as -7% and the Z score is 0.92.

Regarding `C[C@@H](C(=O)N1CCOc2ccc(CN3CCCCC3)cc2C1)c1ccccc1`, the “% Inhibition” value is reported as -11% and the Z score worked out at 1.22.

`Cc1ncsc1-c1nc(-c2nnc(-c3ccccc3)o2)no1`: the “% Inhibition” value is 23% and the Z score is -2.57.

For the molecule `O=C(NCCc1ccccc1)[C@H]1C[C@@H](C(=O)Nc2ccc(F)cc2)CN(Cc2ccncc2)C1`, the “% Inhibition” value is given as 2% and the Z score was -0.26.

For `C[C@H]1CC(C)(C)N(C)c2ccc(/C=C/c3c(C(=O)O)cnc4ccnn34)cc21`, the “% Inhibition” value worked out at 37% and the Z score is given as -4.2.

Regarding `CC1(C)[C@@H](c2cccc(F)c2)CCN1Cc1ncccc1C(=O)O`, the “% Inhibition” value is given as -11% and the Z score was determined as 1.77.

For the molecule `Cc1nn(C)c(Cl)c1-c1nc2c([nH]1)c(C)nn2C1CCCCC1`, the “% Inhibition” value is recorded as 1% and the Z score was -0.09.

Take `CCN(C(C)c1ccc(F)cc1)S(=O)(=O)C(C)COC` (stereo not drawn): the “% Inhibition” value is recorded as -6% and the Z score is 0.79.

As to `CC(C)NCc1ccccc1-c1cccc2ncccc12`, the “% Inhibition” value is reported as -6% and the Z score was 0.59.

For the molecule `CCOC(=O)c1cc(CC)nc2c1c(C1CC1)nn2-c1ccc(OC)cc1`, the “% Inhibition” value is given as 3% and the Z score is given as -0.54.

Turning to `CC(C)c1nc(C(=O)NCCc2ccc(F)cc2)c[nH]1`, the “% Inhibition” value is listed as -5% and the Z score was determined as 0.55.

Turning to `Cc1ncc(NC(=O)c2ccc3nncn3c2)cn1`, the “% Inhibition” value was -4% and the Z score came out at 0.53.

Regarding `Cn1ccnc1-c1ccccc1C(=O)N1CCN(Cc2ccccc2)CC1`, the “% Inhibition” value is -18% and the Z score was 2.68.
